In all, about 330,000 compounds went through this assay and about 4,200 (1.3%) were called active. This list was built around the results that the source calls inconclusive (neither active nor inactive); the mix of calls is not that of the screen. Calls come from the whole dose curve; as a rule, active = well fitted activation curve with a large enough effect; inconclusive = small, poorly fitted or top-dose-only effect; inactive = no such curve, though single readings can be large or run the other way. Potencies beside an inconclusive call are fits to weak or partial responses and may not hold up.
test: qHTS screen for small molecules that induce genotoxicity in human embryonic kidney (HEK293T) cells expressing luciferase-tagged ELG1; conditions: HEK293T ELG1-luciferase reporter, luminescence, 16 h; series mostly up to 46 µM; note: nearly all actives have a fitted effect of over 60% in size; for activity change, positive = activation: % of control where 0% means no effect
Summary of the method: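 Genotoxicity was scored as increased ELG1-luciferase reporter signal, measured by ONE-Glo luminescence (30 min, room temperature). Compound or vehicle exposure of the HEK293T reporter cells lasted 16 hr at 37°C.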
Potency is the fitted concentration of half-maximal effect; tags give direction and shape of the fitted curve.

| SMILES | Potency | activity change, positive = activation |
| --- | --- | --- |
| Cc1ccc(CNCC(O)(c2ccccc2)c2ccccc2)cc1 | inactive |  |
| O=C(CCCc1ccccc1)c1ccc2c(c1)OCCO2 | inconclusive: 0.058 µM [activator, full curve] |  |
| CC1CN(C(=O)c2ccc(COc3ccc(C(C)C)cc3)o2)CC(C)O1 (configuration not stated) | inconclusive: 10.3 µM [activator, partial curve, poor fit] |  |
| CCc1ccc(Nc2ncc3c(n2)CC(C)(C)CC3=O)cc1 | inconclusive: 5.17 µM [activator, partial curve] |  |
| Cc1ccc(S(=O)(=O)N(C)CCCC(=O)NC(C)(C)C)cc1 | inactive |  |
| CN1CC(=O)N/C1=N\C(=O)Nc1ccc2c(c1)N(C)C(=O)CS2 | inconclusive: 32.6 µM [activator, partial curve, poor fit] |  |
| Cc1cccc(CN2CCCC(C(=O)Nc3ccc(-c4cscn4)cc3)C2)c1 (configuration not stated) | inactive |  |
| COc1ccc2c(c1)NC(=O)CC(c1ccccc1)=N2 | active: 16.4 µM |  |
| O=C(Nc1ccc(NC(=O)c2ccco2)nc1)c1ccccn1 | inconclusive: 1.84 µM [activator, partial curve] |  |
| Cc1cccc(NC(=O)c2c(O)c3ccccc3n(C)c2=O)c1 | inconclusive: 2.06 µM [activator, partial curve, poor fit] |  |
| Cc1ccc(NC(=S)NC(=O)c2ccc(Br)o2)c(C)c1 | inconclusive: 2.91 µM [activator, full curve] |  |
| COCCNC(=O)c1cccc(OC2CCN(Cc3cccc(SC)c3)CC2)c1 | inactive |  |
| COC(=O)c1cc2c(s1)-c1ccc(OC)cc1CC2 | inconclusive: 20.6 µM [activator, partial curve, poor fit] |  |
| Cc1cc(C)c(NC(=O)Cn2ncc3ccccc32)c(C)c1 | inconclusive: 18.3 µM [activator, partial curve, poor fit] |  |
| O=C(CCNS(=O)(=O)c1cccs1)N1CCCCCC1 | inconclusive: 14.6 µM [activator, partial curve] |  |
| CC(=O)c1c(C)[nH]c(C(=O)NCCc2c[nH]c3ccccc23)c1C | inconclusive: 25.9 µM [activator, partial curve, poor fit] |  |
| O=C1CSC(c2cccc([N+](=O)[O-])c2)N1CCc1ccccc1 (configuration not stated) | inactive |  |
| COc1ccc(/C(C)=N/NC(=O)c2ccccc2OCc2ccccc2)c(OC)c1 | inconclusive: 18.3 µM [activator, partial curve, poor fit] |  |
| CC(C)CN1CCC(=O)N(CCN=[N+]=[N-])CC1 | inactive |  |
| Cc1ccc2cc(/C=N/NC(=O)c3ccc(F)cc3)c(Cl)nc2c1 | inconclusive: 29.1 µM [activator, single point] |  |
| CCOC(=O)CNC(=O)CSc1cc(C)nc2ccc(OC)cc12 | inconclusive: 18.3 µM [activator, partial curve] |  |
| O=C(Nc1ccc2c(c1)OCO2)c1cc(C2CC2)on1 | active: 2.06 µM |  |
| COc1ccc(CN2CCN(C(=O)c3cccc4ccccc34)CC2)cc1Br | inactive |  |
| COc1ccc(/C=C/c2ccc3cccc(O)c3n2)c(OC)c1OC | active: 23.1 µM |  |

| SMILES | Potency | activity change, positive = activation |
| --- | --- | --- |
| O=C(Oc1ccc2ccc(O)cc2c1)c1ccccc1Cl | inconclusive: 29.1 µM [activator, single point] |  |
| O=C1CCC(C(=O)OCc2nnc(-c3ccccc3)o2)=NN1 | inconclusive: 32.6 µM [activator, partial curve, poor fit] |  |
| Clc1ccc2oc(-c3ccccc3)nc2c1 | inconclusive: 14.6 µM [activator, partial curve, poor fit] |  |
| Cc1nc2ncccn2c1-c1csc(Nc2ccccc2)n1 | inactive |  |
| O=C(Nc1ccc(N2CCOCC2)c(Cl)c1)c1cccc(F)c1 | active: 2.31 µM |  |
| O=C(N/N=C/c1ccco1)c1ccn[nH]1 | inactive |  |
| Cc1ccc(C=Nc2ccccc2C(N)=O)cc1 | inconclusive: 15.8 µM [activator, single point] |  |
| COC(=O)c1nc2ccc(C)cn2c1F | inconclusive: 20.6 µM [activator, partial curve] |  |
| C=CCn1c(C)cc(C2=NNC(=NC(C)(C)C)SC2)c1C | active: 0.58 µM |  |
| COc1cc(C(=O)NCCOc2cc(C)cc(C)c2)cc(OC)c1OC | inactive |  |
| Cc1ccc(-c2nc(C=Nc3ccccc3)c(O)o2)cc1 | inconclusive: 20.6 µM [activator, partial curve, poor fit] |  |
| Cc1ccccc1CN1CCC(n2nccc2NC(=O)c2ccc3c(c2)OCO3)CC1 | inconclusive: 18.3 µM [activator, single point] |  |
| CC(C)(C)NS(=O)(=O)c1ccc(CCC(=O)Nc2ccc3c(c2)OCO3)cc1 | inactive |  |
| COc1ccc(NC(=O)c2[nH]c(C)c(C(C)=O)c2C)cc1S(=O)(=O)N1CCOCC1 | inconclusive: 18.4 µM [activator, partial curve] |  |
| COc1ccc(OC)c(-c2cc(C(=O)Nc3ccc(F)cc3F)no2)c1 | inconclusive: 18.3 µM [activator, single point] |  |
| CCc1ccc(NC(=O)NCc2cccnc2)cc1 | inconclusive: 18.3 µM [activator, partial curve, poor fit] |  |
| CCN(CC)S(=O)(=O)c1cccc(NC(=O)c2ccc(SC)cc2OC)c1 | inactive |  |
| COc1ccc(CNC(=O)c2ccc(NC(=O)C3=CSCCO3)cc2)cc1 | inconclusive: 23.1 µM [activator, partial curve, poor fit] |  |
| O=C(OCC(=O)N1CCCC1)c1c(Cl)cccc1Cl | inactive |  |
| O=C(OCc1ccccc1)c1cccc(-c2nnc(-c3ccccc3)o2)c1 | inconclusive: 18.4 µM [activator, partial curve] |  |
| CCOC(=O)c1c(C)[nH]c(C(=O)OCC(=O)Nc2cc(C)ccc2OC)c1C | inconclusive: 35.5 µM [activator, partial curve, poor fit] |  |
| O=C(NCCCN1CCOCC1)c1cc(-c2ccc(F)cc2)no1 |  | inactive: -0.623% [at 9.26 µM] |
| CC(=O)c1cc(NC(=O)c2ccc(C)cc2)c(=O)oc1/C=C/N(C)C | inactive |  |

Source: PubChem BioAssay AID504466 (National Center for Advancing Translational Sciences (NCATS), 2011)
